Results taken from US20260274933A1 (Innovent, published 2026).

Tests used:
[1] = biological target: T1, hAng2-biotin (R&D, Catalog No. BT623B/CF) (human, UniProt O15123 68-496, limits assumed, biotinylated); assay: blocking ELISA: hTie2 coated, binding of biotinylated hAng2 blocked; unit from the axis
T1 construct: also called Ang2-Bio (R&D, Catalog No. BT623B/CF); Recombinant Biotinylated hAngiopoietin-2 protein (R&D)
T1 sequence (looked up): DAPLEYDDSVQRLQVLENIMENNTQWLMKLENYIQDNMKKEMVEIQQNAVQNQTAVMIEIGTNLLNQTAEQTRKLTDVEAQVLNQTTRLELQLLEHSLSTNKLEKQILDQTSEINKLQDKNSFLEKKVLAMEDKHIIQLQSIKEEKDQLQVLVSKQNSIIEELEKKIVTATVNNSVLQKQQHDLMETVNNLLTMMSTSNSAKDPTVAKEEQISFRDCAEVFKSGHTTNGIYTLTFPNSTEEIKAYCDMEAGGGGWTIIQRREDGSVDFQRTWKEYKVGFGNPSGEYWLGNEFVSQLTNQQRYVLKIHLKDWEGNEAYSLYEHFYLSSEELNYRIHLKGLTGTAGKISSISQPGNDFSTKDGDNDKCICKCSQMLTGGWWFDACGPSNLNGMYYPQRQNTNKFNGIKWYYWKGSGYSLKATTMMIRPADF
Procedure: (§1) The antigen-antibody mixture obtained as described above was incubated in the microplate for 90 min and washed three times with PBS, and the supernatant was discarded. 100 μL of Avidin-HRP (Invitrogen) diluted in a 1:10000 ratio was added to each well, incubated at room temperature for 30 min, and washed six times with PBS. A TMB chromogenic solution (solarbio) was added to the plate at 100 μL/well for color development for 1 min, and the reaction was stopped by adding a stop solution (Solarbio) at 100 μL/well.

[2] = biological target: T2, hAng2-Fc (Beijing Sino Biological, Catalog No. 10691-H02H) (human, UniProt O15123 19-496); assay: flow cytometry blocking: binding of hAng2-Fc to Tie2 on 293-Tie2 cells blocked, Mean-PE-A; unit from the axis
T2 construct: Bought fusion protein; also called human Ang2-hFc; recombinant hAng2-Fc protein; not shown: human Fc of the bought fusion protein
T2 sequence (looked up): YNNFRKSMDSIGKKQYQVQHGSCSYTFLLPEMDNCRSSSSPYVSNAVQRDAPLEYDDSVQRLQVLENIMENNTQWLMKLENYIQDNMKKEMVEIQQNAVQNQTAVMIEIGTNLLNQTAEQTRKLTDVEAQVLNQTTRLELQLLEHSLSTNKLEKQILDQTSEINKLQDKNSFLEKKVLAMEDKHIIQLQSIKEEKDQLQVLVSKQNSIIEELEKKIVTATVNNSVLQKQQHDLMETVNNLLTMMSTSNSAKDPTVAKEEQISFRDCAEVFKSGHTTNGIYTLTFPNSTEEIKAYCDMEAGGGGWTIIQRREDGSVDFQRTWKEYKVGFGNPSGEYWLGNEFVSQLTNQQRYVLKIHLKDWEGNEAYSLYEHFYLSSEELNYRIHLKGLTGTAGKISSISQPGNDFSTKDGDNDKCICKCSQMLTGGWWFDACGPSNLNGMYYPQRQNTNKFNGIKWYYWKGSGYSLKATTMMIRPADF
Procedure: (§2) The cells were centrifuged at 300 g for 5 min. The supernatant was discarded. Then the cells were resuspended in an antigen-antibody mixture. The mixture was incubated on ice for 30 min. PBS was added at 100 μL/well. After centrifugation at 300 g for 5 min, the mixture was washed once with PBS. 100 μL of goat anti-human IgG-PE (SouthernBiotech) diluted in a 1:200 ratio was added to each well. After a 20-min ice bath, PBS was added at 100 μL/well. The mixture was centrifuged at 300 g for 5 min, prior to one wash with PBS. The cells were resuspended with 100 μL of PBS. The cell fluorescence signal values were measured by a flow cytometer (BD Biosciences). According to MFI, the concentration-dependent curve was fitted with GraphPad.

[3] = biological target: T1, hAng2-biotin (R&D, Catalog No. …); assay: blocking ELISA: hTie2 coated, binding of biotinylated hAng2 blocked; unit from the axis; remark: listed apart in the source
Procedure: as §1

[4] = biological target: T2, hAng2-Fc (Beijing Sino Biological, …); assay: flow cytometry blocking: binding of hAng2-Fc to Tie2 on 293-Tie2 cells blocked, Mean PE-A; unit from the axis
Procedure: as §2

IC50 [1]: 16.9 nM
IC50 [2]: 0.742 nM
IC50 [3]: 22.2 nM
IC50 [4]: 1.23 nM
B1: Positive control antibody BI836880 (VEGFA/HSA/Ang2) (bispecific antibody)
chain: DVQLVESGGGLVQPGGSLRLSCAASGRTFSSYSMGWFRQAPGKEREFVVAISKGGYKYDAVSLEGRFTISRDNAKNTVYLQINSLRPEDTAVYYCASSRAYGSSRLRLADTYEYWGQGTLVTVSSGGGGSGGGS[letters of about 120 residues omitted]GGGGSGGGSEVQLVESGGGLVQPGGSLRLSCAVSGITLDDYAIGWFRQAPGKEREGVSAIRSSGGSTYYADSVKGRFTISSDNSKNTVYLQMNSLRPEDTAVYYCAAVPAGRLRYGEQWYPIYEYDAWGQGTLVTVSS
notes: also called B1836880

IC50 [3]: 3.68 nM
IC50 [4]: 0.427 nM
B2: IEX04-010 (bispecific antibody)
chain: SDTGRPFVEMYSEIPEIIHMTEGRELVIPCRVTSPNITVTLKKFPLDTLIPDGKRIIWDSRKGFIISNATYKEIGLLTCEATVNGHLYKTNYLTHRQTNTIIDVVLSPSHGIELSVGEKLVLNCTARTELNVGIDFNWEYPSSKHQHKKLVNRDLKTQSGSEMKKFLSTLTIDGVTRSDQGLYTCAASSGLMTKKNSTFVRVHEK[letters of human IgG1 Fc omitted]GGGSGGGGSGGGGSEVQLLESGGGLVQPGGSLRLSCAASGFALDYYAIGWFRQAPGKGLEGVSCISSGEGSTYYADSVKGRFTISRDNSKNTVYLQMNSLRAEDTAVYYCATDSRGDDVACEGLRRNEYDYWGQGTLVTVSS
notes: Aflibercept-type VEGFR ECD-Fc fused to the anti-Ang2 VHH; also called VEGFR extracellular domain + Fc + linker + LA24C11.10

Read-outs that look alike come from different tables or passages of the source. One block for each binder: values may come before it.
